This is one part of the list.
T1: UNK ZnF1-3 (human, UniProt Q9C0B0 31-174)
T1 sequence: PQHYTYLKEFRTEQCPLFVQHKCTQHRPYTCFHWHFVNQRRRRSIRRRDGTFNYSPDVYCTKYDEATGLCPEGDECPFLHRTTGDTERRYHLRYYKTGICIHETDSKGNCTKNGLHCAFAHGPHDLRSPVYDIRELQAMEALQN

B1: chr10:7461220:7461221:+_ENSMUSG00000019794_ENSMUST00000165806|mus_mus|FALSE|FALSE (ssRNA)
RNA: GGGAGUUCUACAGUCCGACGAUCGACUUCUCCUUCAGCAGCUGGAAAUUCAUGUUGUGCAGCUUGCAAAGAAGUGAUGUCUAGUUUGAAGCUCUCGAGUGUUUUCAUGAUAUCCUUAACUUGCUUAGCUUCCACAUUUAUUUCCAACAGAGGAUUGAGCAUCA
B2: chr8:90938390:90938391:+_ENSG00000164823_ENST00000451899|hu_mus|FALSE|FALSE (ssRNA)
RNA: GGGAGUUCUACAGUCCGACGAUCAUCAAGUACCUAUCUGUCAAAAUCUCAACUUGUAAAAAUAUUUUUAAUGACCAUCAUAUUUGAUAAUAAAUUAGGUUUAUAUAACUGAUAGUUUCAAAAUAAAUAAAACCUGAGUUGCAACAACAGAGGAUUGAGCAUCA
B3: 18382297_18383710_1157_CDS_ENSG00000243156_ENST00000441493|human|control|control (ssRNA)
RNA: GGGAGUUCUACAGUCCGACGAUCGUUCUCCAAGUCAAUACCUGUGGCUUCCCUCAGUUCCUGGAAAAAUUUUUGGUUGAAUAUAAAAGCCACACCACUGAUCUCUUCCACUUUAGCUUCUGCUGUUGUAUUUCGGUUGAUAAACAACAGAGGAUUGAGCAUCA
B4: chr15:98781125:98781126:-_ENSMUSG00000072235_ENSMUST00000097014|mus_hu|FALSE|FALSE (ssRNA)
RNA: GGGAGUUCUACAGUCCGACGAUCAACAUUCAGGGCUCCAUCAAAUCUCAGGGAAGCAGUGAUGGAGGACACAAUUUGACCUAUUAACCUAUUCAGGUUAGUAUAGGUUGGACGCUCAAUAUCGAGGUUUCUACGACAGAUGUCCAACAGAGGAUUGAGCAUCA
B5: 66266372_66266492_4502_CDS_ENSMUSG00000038664_ENSMUST00000042824|mouse|control|control (ssRNA)
RNA: GGGAGUUCUACAGUCCGACGAUCAGAGGCACUCACAGAAGGCUGCUGUAACUGCCCUUCUUCCCUUCGCUUCUGAAGCUCAUCAAUCACAGGACUUACUCCUAAUAUUAGGAGCGCACAGCGGUGGAUCACAGAGUUGCAGGCCAACAGAGGAUUGAGCAUCA
B6: 28027135_28027255_379_3pUTR_ENSMUSG00000063632_ENSMUST00000079063|mouse|control|control (ssRNA)
RNA: GGGAGUUCUACAGUCCGACGAUCCGACGCCGUCUUGCACCAGUCCGGGUCGCUCUCGUCCAGGGCCACCGGGCUGCACGCCAUGAACUCGCCCUCCUCGGUGUCCAGCGCGUCCCGGGGCAGGUUGCUCUCGGCUUCCGAGCUCAACAGAGGAUUGAGCAUCA
B7: 3367318_3367438_2247_3pUTR_ENSMUSG00000020668_ENSMUST00000020999|mouse|control|control (ssRNA)
RNA: GGGAGUUCUACAGUCCGACGAUCCUCACUCACAAGGCUGCGGUCAUCCUGGAUGGCAGCCUUCUCCUCCUCCAGCCGUUCCUUCUGGUCCUGCAGGUAAUUCUCCAUGUUCUUCUCCAAAGCUGCCUCCAAGAUGGGCUGGGGCAACAGAGGAUUGAGCAUCA
B8: chr15:3987131:3987132:+_ENSMUSG00000022186_ENSMUST00000110690|mus_mus|motif|central (ssRNA)
RNA: GGGAGUUCUACAGUCCGACGAUCCCCUGCAUUGUUGCUGACUGCAGUUAGAUCUUUUACUCCAGUCUUCAGUAAAGCUCCGGUAAGAUUCUCUGGAAUACCACACAGCCCAAAACCACCAACCAGCAAGGUUGCACCAUUAGGCAACAGAGGAUUGAGCAUCA
B9: chr4:130320001:130320002:+_ENSMUSG00000028580_ENSMUST00000105991|mus_mus|FALSE|FALSE (ssRNA)
RNA: GGGAGUUCUACAGUCCGACGAUCCGCAGCCUGGAGGAUUUCAUUGAAGACAAGCUGGCGCUCAGCUGCUGUGGCACGCUCUAGUUUCAGCUGAAUGAAUCUAGAGCCAUGCUGGUCUUGAGAAAAUUCCAUUAUAUGCCCAGCCAACAGAGGAUUGAGCAUCA
B10: chr1:23645023:23645024:-_ENSG00000125944_ENST00000302271|hu_mus|FALSE|FALSE (ssRNA)
RNA: GGGAGUUCUACAGUCCGACGAUCCUUUGCCAUGACUUCUGGAUCCGGCUCCUCCACGGGGUCAGCCCACUCUACUGUAACCACAUUUCCCCACACUUUGACUUUUCCACUCAUCAGCCGGCGUCUGGCUUGUGCUGCUGACUUCAACAGAGGAUUGAGCAUCA
B11: 21906080_21940665_881_3pUTR_ENSG00000078403_ENST00000307729|human|control|control (ssRNA)
RNA: GGGAGUUCUACAGUCCGACGAUCAUGCAGGUGAUGGUUCUGGCUGCUUCUUGUGUUUCUGUUUGUGUUUGUCCUUCUCUUUAUAUUUUUUUUUCUCUUUCUCAUGAUGUUUAUCCUGAGAGUGAGAGGAAGAAUCACUUAAACCAACAGAGGAUUGAGCAUCA
B12: chr11:66627819:66627820:+_ENSG00000173621_ENST00000309602|hu_hu|FALSE|FALSE (ssRNA)
RNA: GGGAGUUCUACAGUCCGACGAUCGGUGGCUGUGAGCACCUGUUGGAGGGGCCUGCCCUUACCCUGGUCUGGAGGCCAGAACCGAGGAAAGGGCUCCCUGCCCCUCCAAGUACACAGGGGAGCCUGAGGUACUGAGAAUAAAAACAACAGAGGAUUGAGCAUCA
B13: 71633814_71636354_1509_CDS_ENSMUSG00000006273_ENSMUST00000006435|mouse|control|control (ssRNA)
RNA: GGGAGUUCUACAGUCCGACGAUCAUAAACAGUUCGGUUUUCAUAGGGACCCUGAGUAAUGAAGUUCUUCUCAAACUUCUGCAGAAAUUCCAGGUAAAGGAGAUCAUCUGAGGUCAGGGCUUCCUCUCCCACCACGGCUUUCAUCAACAGAGGAUUGAGCAUCA
B14: chr11:75578393:75578394:+_ENSMUSG00000020849_ENSMUST00000067664|mus_hu|FALSE|FALSE (ssRNA)
RNA: GGGAGUUCUACAGUCCGACGAUCGACACAGUAAUGCUGAAAAAGCCUCUAUGUAGUCCUGUUAGUGUCUUAAAGAACCUAAAAGCUGGGACCAGUAAAAUCCACAGAAAUUCACUCUUGCCUUUAAGAACUUUUGAAAACUGUCAACAGAGGAUUGAGCAUCA
B15: chr4:175223256:175223257:+_ENSG00000164118_ENST00000503780|hu_hu|FALSE|FALSE (ssRNA)
RNA: GGGAGUUCUACAGUCCGACGAUCAAAUUGAUCACGAAGAAGCUUAUAGACAGCAUCUAUAAAGCGCAAGUCAUUUUUUGCUAUGAGCUCUACAUUGGAUUCCAUUAUAAGUUCUGUUACAUAAGGUGAGUAUGAGGUAAAAGACAACAGAGGAUUGAGCAUCA
B16: 10830402_10830522_195_5pUTR_ENSG00000110321_ENST00000339995|human|control|control (ssRNA)
RNA: GGGAGUUCUACAGUCCGACGAUCAGAGGAGUCGCUGCUGCAGCCGCCACUCGGUACCCGCUGCCACCUCCAUAGAGCUCCGACUCACUGCUGGCGCUAAGGCGUGUCUGAAGCCGAACUUAUCACUCUUGGGGCAGCCGAACCCAACAGAGGAUUGAGCAUCA
B17: chr11:77336104:77336105:-_ENSG00000074201_ENST00000525064|hu_mus|hu_hu_hu_mus_False|18_98 (ssRNA)
RNA: GGGAGUUCUACAGUCCGACGAUCCUCACACAUUGCUGUGAACAUUGCCUCCAAUGCUGACUUAUCACUGGGCACAAAUCGAAAUUCAGAAAUGGGUUCAACAUCAUCAUUGUCUUCUUCCUCUUCUUCAGAGAGAGGUUCUUUCAACAGAGGAUUGAGCAUCA
B18: 181729411_181733545_326_5pUTR_ENSMUSG00000026491_ENSMUST00000027768|mouse|control|control (ssRNA)
RNA: GGGAGUUCUACAGUCCGACGAUCUUCUGGGAAAUGCAGGAGAUCACUAGUCACUUGAGCUGUCAAGUCUUGCAUACUGCCACUGAGCCCGCGGGCCAGGCCGCCAAGGGCCCCGGCGUCGCUGCUUCCGUGCGGUCCGUCACACAACAGAGGAUUGAGCAUCA
B19: chr10:1038518:1038519:+_ENSG00000107937_ENST00000545048|hu_hu|hu_hu_hu_mus_False|1_48 (ssRNA)
RNA: GGGAGUUCUACAGUCCGACGAUCCAGUCUGUCAUGGUAAUUCUGUUGAGUAAAUUUGACUUUUCUCAUAUAAAAAUGUCGAAUCCGAUGUAUUUGGUAAUGUUUAUGAAUAACCGUUGGAGUCUUUCGUUGAGUCUUCGACAACAACAGAGGAUUGAGCAUCA
B20: 179884977_179887919_1089_3pUTR_ENSMUSG00000039050_ENSMUST00000040668|mouse|control|control (ssRNA)
RNA: GGGAGUUCUACAGUCCGACGAUCAAAGAGCUUCUUCCUGUUUUUGUCUUGAAUGUACCCUUCUACUCUGUGAAGUUCCUUCCCAAACAAUCCACAAGGCUUGAAGUGAAGUAUACACUUAUCUCCAGUUCUGUGAUUUACAAUCAACAGAGGAUUGAGCAUCA
B21: chr4:99338562:99338563:+_ENSG00000138698_ENST00000453712|hu_hu|motif|central (ssRNA)
RNA: GGGAGUUCUACAGUCCGACGAUCUCCAGCAAGCUGUAGCUGGUGGUUAUUUGAUGGGAUCCAAGAGAGUACCCUUUGAAAUACACGGCCUUUUCCUCCUUCAAAUAACUUCUGCAUGGAUUCAUCUCCAAGAAGUAAUAAAACCAACAGAGGAUUGAGCAUCA
B22: chr7:149068622:149068623:-_ENSMUSG00000025139_ENSMUST00000001950|mus_hu|mus_mus_mus_hu_False|68_88 (ssRNA)
RNA: GGGAGUUCUACAGUCCGACGAUCGUGAGGCCUCUGAGUGUGGCUUGUGCUCUGCAGUGGGUUAGAGCUGCUGGUAACACGGAACAUACCAUCUAGAACGUUCCAGUCCCGCCUGACACCUUCAUUCCCAAUGGAGAAGAAAUCCAACAGAGGAUUGAGCAUCA

Target: T1, UNK ZnF1-3
Assay: nsRBNS (natural sequence RNA bind-n-seq); RBNS binding buffer (assumed for nsRBNS): 25 mM Tris pH 7.5, 150 mM KCl, 3 mM MgCl2, 0.01% Triton X-100, 500 ug/ml BSA, 20 U/ml SUPERase-In, 4 C; UNK is unkempt and MSI1 is Musashi-1; names of the RNAs are library labels; protein concentration not given here; high values mean tight binding

Row | Binder | binding signal
1 | B1 | 0.645 enrichment R
2 | B2 | 0.855 enrichment R
3 | B3 | 0.904 enrichment R
4 | B4 | 0.742 enrichment R
5 | B5 | 1.4 enrichment R
6 | B6 | 0.493 enrichment R
7 | B7 | 0.61 enrichment R
8 | B8 | 1.01 enrichment R
9 | B9 | 1.28 enrichment R
10 | B10 | 0.673 enrichment R
11 | B11 | 0.284 enrichment R
12 | B12 | 0.666 enrichment R
13 | B13 | 0.963 enrichment R
14 | B14 | 1.44 enrichment R
15 | B15 | 0.881 enrichment R
16 | B16 | 0.233 enrichment R
17 | B17 | 0.786 enrichment R
18 | B18 | 0.591 enrichment R
19 | B19 | 0.644 enrichment R
20 | B20 | 0.735 enrichment R
21 | B21 | 1.07 enrichment R
22 | B22 | 0.82 enrichment R

— article PMC12136788
